Results published in the supplement of paper PMC12217912.
The other results are listed elsewhere or left out. Sequences were assembled here from the parent chain. Values near 0.05 are background.

B1: TEV protease; numbered along this chain (parent)
chain: MGESLFKGPRDYNPISSSICHLTNESDGHTTSLYGIGFGPFIITNKHLFRRNNGTLVVQSLHGVFKVKDTTTLQQHLVDGRDMIIIRMPKDFPPFPQKLKFREPQREERICLVTTNFQTKSMSSMVSDTSCTFPSGDGIFWKHWIQTKDGQCGSPLVSTRDGFIVGIHSASNFTNTNNYFTSVPKNFMELLTNQEAQQWVSGWRLNADSVLWGGHKVFMVKPEEPFQPVKEATQL

Variants of: B1
Assay: raw area under fraction-flipped curve 0-4 h after induction (AUC4h, not background-subtracted), DNA-recorder readout of cleavage of the substrate (dimensionless); higher = more cleavage of the substrate by the protease variant
Conditions: temperature: 34 °C; time window: 0-4 h after rhamnose induction
Protocol: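 In vivo DNA recorder in E. coli TOP10(DE3) ΔrhaA at 34 °C. Each TEVp single-site mutant (parent TEVp 0) is paired with a single-site variant of the 7-mer TEVs (canonical ENLYFQ|S). The substrate sits between flexible linkers in a Bxb1-sfGFP-TEVs-SsrA fusion, so cleavage stabilises Bxb1 and speeds flipping of a recombination array, read by NGS. The value is the raw area under the fraction-flipped curve over 0-4 h after rhamnose induction (AUC4h), with ≥20 reads per time point. It is not background-subtracted; inactive controls average about 0.047.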
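Note: Bxb1 expression induced with 0.2% (w/v) L-rhamnose at OD600 near 0.5, cultures sampled hourly, flipped fraction per protease–substrate barcode pair counted by paired-end Illumina sequencing.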

Variant	area with substrate ENLCFQS	area with substrate ENLDFQS	area with substrate ENLFFQS	area with substrate ENLHFQS	area with substrate ENLLFQS	area with substrate ENLMFQS	area with substrate ENLNFQS	area with substrate ENLPFQS	area with substrate ENLQFQS	area with substrate ENLRFQS	area with substrate ENLSFQS	area with substrate ENLVFQS	area with substrate ENLEFQS	area with substrate ENLKFQS	area with substrate ENLTFQS	area with substrate ENLIFQS	area with substrate ENLWFQS	area with substrate ENLGFQS
T55F	0.0871	0.068	0.104	0.0556	0.0561	0.0678	0.0473	0.0486	0.0695	0.113	0.0664	0.0977	–	–	–	–	–	–
L61E	0.071	0.0707	0.0875	0.0626	0.0878	–	–	–	0.066	–	0.059	0.0762	0.0335	0.0732	0.07	–	–	–
G63H	0.0655	0.0687	0.0826	0.0713	–	–	–	0.047	0.0699	0.0786	0.0494	–	–	0.0722	–	–	–	–
L73S	0.0635	0.0547	–	0.0698	–	–	0.0621	0.0517	–	0.0548	0.0525	0.0638	0.0639	0.0619	–	0.0494	–	–
L73T	0.0585	0.0615	0.0704	0.0587	0.0668	–	0.0662	0.0408	–	–	0.0421	–	0.0597	0.0691	0.0782	0.0701	0.0586	–
D79H	0.0642	0.0887	0.0896	–	0.112	0.0808	0.0639	0.038	–	–	0.0748	0.13	–	0.0615	–	–	–	–
P89H	0.0539	0.0542	0.0889	0.0557	0.0943	–	0.0619	0.0559	0.0559	0.0772	0.0413	–	–	–	–	–	0.0468	–
D91F	0.0584	0.0645	0.074	–	0.0717	–	–	–	–	–	0.0533	–	–	0.0492	0.0771	0.0871	–	0.0519
D91Q	0.112	–	0.0785	–	0.0719	–	–	0.064	0.0656	–	0.0557	–	–	0.0656	–	–	0.0828	–
K98M	0.0672	0.0542	–	0.0726	0.072	–	0.0475	0.0763	0.0682	0.0637	0.0644	0.0684	–	–	–	0.0696	0.0679	–
K100F	0.0669	0.0634	0.0835	–	0.0653	–	0.0643	–	–	0.0695	0.0608	–	0.0596	0.08	–	0.0761	0.0648	–
K100I	0.0885	–	0.0821	0.0701	–	0.0668	0.0583	0.0597	–	0.112	–	–	0.0695	0.0752	–	0.0675	–	–
R109E	0.0725	0.0623	0.0671	–	–	0.0723	0.0679	0.0669	0.0666	0.075	0.0567	–	0.0695	0.0776	–	–	0.025	–
L112R	0.0683	0.0536	0.0517	0.0669	–	–	0.0844	0.071	–	0.0722	–	–	0.0725	0.0788	–	0.0692	0.0583	0.0679
T114K	0.0932	–	–	0.0783	0.0658	–	0.0794	–	–	0.083	–	–	–	0.0859	–	0.118	–	–
S123G	0.0694	–	0.0947	0.0975	0.0688	–	0.0774	0.0403	0.0675	0.0679	–	–	0.0574	0.0714	–	0.0793	0.0651	0.0619
